The campaign covered roughly 310,000 compounds. About 2,200 (0.71%) showed an effect of 50% or more. The effect is printed as a negative number. Some of the results follow.
Each molecule was assayed against human ether-à-go-go-related gene (hERG) potassium channel (human, UniProt Q12809) (assay: primary screen, population patch clamp on CHO cells stably expressing hERG).
Chain of human ether-à-go-go-related gene (hERG) potassium channel (Q12809 whole entry, looked up): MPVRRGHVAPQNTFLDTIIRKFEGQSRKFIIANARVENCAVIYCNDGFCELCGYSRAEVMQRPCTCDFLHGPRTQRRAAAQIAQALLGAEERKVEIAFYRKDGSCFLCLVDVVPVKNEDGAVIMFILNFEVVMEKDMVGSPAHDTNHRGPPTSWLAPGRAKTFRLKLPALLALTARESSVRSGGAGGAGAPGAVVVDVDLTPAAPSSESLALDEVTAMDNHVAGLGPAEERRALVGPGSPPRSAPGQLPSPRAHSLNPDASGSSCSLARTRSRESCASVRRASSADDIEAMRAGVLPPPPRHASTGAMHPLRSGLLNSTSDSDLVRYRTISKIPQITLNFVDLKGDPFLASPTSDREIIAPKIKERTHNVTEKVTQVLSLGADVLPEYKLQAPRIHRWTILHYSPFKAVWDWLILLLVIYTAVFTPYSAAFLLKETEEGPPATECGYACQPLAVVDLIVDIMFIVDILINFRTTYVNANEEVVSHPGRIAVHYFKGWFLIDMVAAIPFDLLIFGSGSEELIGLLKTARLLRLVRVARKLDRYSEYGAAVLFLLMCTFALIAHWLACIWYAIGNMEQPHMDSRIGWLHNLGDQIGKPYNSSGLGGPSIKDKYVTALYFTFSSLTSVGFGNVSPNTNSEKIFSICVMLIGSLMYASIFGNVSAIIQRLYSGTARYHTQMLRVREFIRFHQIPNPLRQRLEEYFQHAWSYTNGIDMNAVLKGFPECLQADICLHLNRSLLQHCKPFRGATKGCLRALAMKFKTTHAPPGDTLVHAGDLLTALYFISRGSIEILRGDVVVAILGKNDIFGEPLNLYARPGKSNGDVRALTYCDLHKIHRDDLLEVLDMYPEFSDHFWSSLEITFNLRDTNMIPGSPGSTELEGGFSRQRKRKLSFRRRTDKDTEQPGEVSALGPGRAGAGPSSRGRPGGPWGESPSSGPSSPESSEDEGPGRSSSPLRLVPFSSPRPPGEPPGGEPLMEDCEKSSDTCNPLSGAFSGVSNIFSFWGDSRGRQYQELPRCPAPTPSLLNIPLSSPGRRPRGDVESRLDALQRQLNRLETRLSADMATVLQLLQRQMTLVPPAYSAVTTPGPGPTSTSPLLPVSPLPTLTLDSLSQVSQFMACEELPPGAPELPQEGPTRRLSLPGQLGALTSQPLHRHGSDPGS

SMILES | hERG current change (%, negative = inhibition) at 1uM [%]
CCSc1nnc(NC(=O)[C@@H](NC(=O)c2cc(OC)cc(OC)c2)C(C)C)s1 | 2.3
CCOC(=O)C1CCCN(c2c(N3CCN(c4cccc(Cl)c4)CC3)c(=O)c2=O)C1 (stereo not drawn) | -54.1
O=C(N/N=C/c1ccco1)c1ccccc1OCc1ccccc1Cl | -9.15
COc1cc(C(=O)NCCN2C(=O)S/C(=C\c3cccs3)C2=O)cc(OC)c1OC | -4.49
CCCCn1c(NC(C)CC)nc2c1c(=O)[nH]c(=O)n2C (stereo not drawn) | 0.828
O=c1oc2cc(OCc3ccc(F)cc3F)ccc2cc1-c1ccccn1 | 12.9
Cc1ccccc1Cn1ccc(NC(=O)c2onc(C)c2Cl)n1 | 11.7
COc1cc(CN2CCNC(=O)C2CC(=O)N2CCCCO2)cc(OC)c1 (stereo not drawn) | 11.2
CN(C)CCCN(CCCN(C)C)C(=S)Nc1ccc(S(=O)(=O)N2CCOCC2)cc1 | 8.16
CCOC(=O)C1=C(C)N(c2ccc(C)c(C)c2)C(=O)/C1=C\c1ccco1 | 2.1
Cc1ccc(CSCCNS(=O)(=O)c2ccc([N+](=O)[O-])cc2)cc1 | 14
CC(C)(C)NC(=O)COC(=O)c1ccc(F)cc1Cl | 12.6
C/C(=C\c1ccccc1)CN1CCC(C(=O)N2CCC(C)CC2)CC1.O=C(O)C(=O)O | -35.2
CC(C)CN(C(=O)COC(=O)c1ccc(Cl)c(N)c1)c1c(N)n(Cc2ccccc2)c(=O)[nH]c1=O | -14.3
O=C(C1=C[C@H](c2csc3ccccc23)C[C@H](OCc2ccc(CO)cc2)O1)N1CCOCC1 | -15.8
COc1ccc(Cc2nc3ccc(C(=O)NCCCSC)cc3o2)cc1OC | 8.46
COc1ccccc1-c1cc(C(=O)N/N=C/c2ccoc2)c2ccccc2n1 | 17.8
CC(=O)C1=C(C)NC(SCC(=O)Nc2nc3ccccc3s2)=C(C#N)C1c1ccc(Cl)cc1 (stereo not drawn) | 6.27
O=C(O)c1ccc(CN(c2ccccc2)S(=O)(=O)c2ccccc2)cc1 | 23
Cc1cc(N2CCCCC2)nc2ccc(NC(=O)CCC(=O)NCCC(C)C)cc12 | -11.5
Cc1cc(C)n(C(=O)c2ccc(S(=O)(=O)N3CCOCC3)cc2)n1 | 0.4
COc1ccc(S(=O)(=O)N2CCN=C2SCc2cccnc2)cc1 | -2.53

SMILES | hERG current change (%, negative = inhibition) at 1uM [%]
COCCN1C(=O)/C(=C/c2ccc(N3CCCC3)cc2)SC1=S | 7.89
CN(C(=O)COC(=O)c1cccc(S(=O)(=O)N2CCCCCC2)c1)C1CCS(=O)(=O)C1 (stereo not drawn) | 1.3
COCCNc1nnc(SCC(=O)NC2CCCCC2)s1 | 6.58
CC1(C)Cc2c(C#N)c(N3CCOCC3)nc(-c3ccccc3)c2CO1 | 7.95
CCC(C)Oc1nc2ccccc2nc1NS(=O)(=O)c1ccccc1 (stereo not drawn) | 9.52
COc1cc(C(=O)OCCCN=C2NS(=O)(=O)c3ccccc32)cc(OC)c1OC | 7.11
CCOc1ccc(C(=O)c2ccc(OCC)c(N)c2)cc1N | 10.6
Cn1c(/C(C#N)=C(\O)c2cccc(F)c2)nc2ccccc21 | 12.1
CC(C)c1ccc(NC2CCCN(C(=O)CCN3CCCCO3)C2)cc1 (stereo not drawn) | 4.34
NNC(=O)c1cc(C23CC4CC(CC(C4)C2)C3)nc2ccccc12 | 14.5
COc1ccc(NC2C=CS(=O)(=O)C2)cc1 (stereo not drawn) | 13.9
COc1ccccc1NC(=O)/C(C#N)=C/c1cccnc1 | 8.26
COc1ccc(N(CC(=O)NC2CCCCC2)C(=O)c2ccc(C)s2)cc1OC | 17.2
CC(=O)c1ccc(NC(=O)CSc2nc(=O)n3cccc(C)c3n2)cc1 | -3.31
C#CCOCCOCCOCCNc1nc(N2CCN(C(=O)[C@H]([C@@H](C)CC)n3cc(CCC[NH+]=C(N)N)nn3)CC2)nc(N2CCN(C(=O)[C@H](CCCC[NH3+])n3cc(CCC(=O)O)nn3)CC2)n1.[Cl-] | 11.9
CCCC12CN3CCN(CC(C3)/C1=N\NC(=O)c1ccncc1)C2 | 16.2
Cc1cc(=O)oc2cc(OCCSCCN3CCCC3)ccc12 | 11.6
O=C(OCC(=O)N1CCN(C(=O)c2ccco2)CC1)c1cc(=O)c2ccccc2o1 | 10
O=C(Cc1nn[nH]n1)Nc1cc(Cl)cc(Cl)c1 | 9.4
CC(=O)N(CCc1ccccc1)Cc1cc2ccc(C)c(C)c2[nH]c1=O | 7.79
COCCN(C(=O)COC(=O)C1COc2ccccc2O1)c1c(N)n(Cc2ccccc2)c(=O)[nH]c1=O (stereo not drawn) | 11.1
S=C(NCCCN1CCOCC1)Nc1ccc(N2CCOCC2)cc1 | 13.1

SMILES | hERG current change (%, negative = inhibition) at 1uM [%]
O=S1(=O)C=CC(Nc2ccccc2)C1 (stereo not drawn) | -44.7
CCOC(=O)c1ccc(COC(=O)c2nonc2N)cc1 | 4.67
O=C(Oc1cccc(F)c1)c1ccc2c(=O)n3c(nc2c1)CCC3 | 2.01
Cc1ccc(C)c(S(=O)(=O)N2CCN(C(=O)Cc3ccccc3)CC2)c1 | -6.34
CCn1c(-c2nn(C)c(C)c2Cl)n[nH]c1=S | 16.4
O=C(O)c1cccc(NC(=O)c2cn(-c3ccccc3)nc2-c2ccc([N+](=O)[O-])cc2)c1 | 13.6
Cc1c(C(=O)OC(C)C)sc(NC(=O)c2cccnc2)c1C#N | 4.23
O=C(NCc1cccs1)c1cnn2cccnc12 | -3.52
CC1(C)CC(=O)C2=C(C1)OC(c1ccc(O)cc1)C(C#N)=C2N (stereo not drawn) | 6.42
CC(NC(=O)c1ccc(S(=O)(=O)N(C)C)cc1)c1ccc(-n2ccnc2)cc1 (stereo not drawn) | -40.5
CC(=O)C1=C(c2ccccc2)NC(=O)NC1c1ccccc1OCC(=O)NCc1ccccc1 (stereo not drawn) | 12.5
CC1=CC(c2ccc(Cl)cc2)n2nc(NC(=O)CCC(=O)O)nc2N1 (stereo not drawn) | 14.7
O=C/C(=C\Nc1ccccn1)c1nc2cc(Cl)ccc2o1 | 19.2
COC(=O)c1nc2cc3c(cc2c(C)c1C(=O)OC)OCO3 | 14.1
C/C(CC(=O)Nc1ccc2c(c1)OCCO2)=N\NC(=O)Cc1ccccc1 | 15.3
C=CCNc1nc(N2CCCCC2)c(C#N)c2c1CN(Cc1ccccc1)CC2 | 9.15
COc1ccccc1C(C)NS(=O)(=O)c1ccc(Cl)nc1 (stereo not drawn) | 1.47
COC(=O)C1=C(c2cc3ccccc3s2)C[C@@H]2CC[C@H]1N2C(=O)NC1CC1 | 3.81
CC(CCc1ccco1)NC(=O)Cn1ncc2c(=O)oc3ccccc3c21 (stereo not drawn) | 1.54
Cc1cccc(C(=O)Nc2cccc3cccnc23)c1 | 17.4
CC1CCN(C(=O)c2ccc(NC(=O)c3ccccc3)cc2)CC1 | 9.95
Cc1ccc2cccc(OC(=O)N3CCCC3)c2n1 | 12.8

SMILES | hERG current change (%, negative = inhibition) at 1uM [%]
Cc1ccc2nc(NC3=NC(CC(=O)O)C(=O)N3)nc(C)c2c1 (stereo not drawn) | 6.92
O=C(NCC(c1cccnc1)N1CCOCC1)c1cccs1 (stereo not drawn) | 15.6
CCOC(=O)C1CCN(S(=O)(=O)c2c(C)n(C)c(=O)n(C)c2=O)CC1 | 5.57
N/C(=N\OC(=O)CCc1ccccc1)c1cccnc1 | 14
CCOC(=O)CSc1ncc(-c2cccc(Cl)c2)cn1 | 3.31
O=[N+]([O-])c1cc2c(cc1/C=N/n1c(-c3ccccn3)n[nH]c1=S)OCO2 | 6.43
COc1cccc(Oc2nccc(N(C)C)c2C#N)c1 | 16.7
O=C(NCc1ccccn1)C(=O)NCC1OCCN1S(=O)(=O)c1ccc(Br)cc1 (stereo not drawn) | 11.2
CCn1cc(C(=O)NCc2ccccc2Cl)cn1 | 16.3
N#CC1=C(N)S[C@@H](C(=O)c2ccc(F)cc2)[C@@H]1c1cccs1 | 7.8
c1ccc2c(c1)OCC(CNc1ncnc3sccc13)O2 (stereo not drawn) | 6.61
Cc1ccc(NC(=O)c2ccco2)c(NC(=O)c2ccccc2)c1 | 2.72
CCC(C)Nc1nc2c(c(=O)[nH]c(=O)n2C)n1CCC(C)C (stereo not drawn) | 9.56
CCCCN(C(=O)c1ccc(COc2ccccc2)o1)c1c(N)n(CC(C)C)c(=O)[nH]c1=O | 15.1
CN1CCc2c(sc3c2C(=O)NC(c2ccc4c(c2)OCO4)N3)C1 (stereo not drawn) | -2.85
CCC(C)Sc1nc2c(cnn2-c2ccc(F)cc2)c(=O)[nH]1 (stereo not drawn) | 6.66
CCOC(=O)N1CCN(C(=O)c2c[nH]c3ccc(S(=O)(=O)N(C)c4cccc(C)c4)cc3c2=O)CC1 | 21.8
C=CCn1c(SCC(=O)N2CCN(c3ccc(F)cc3)CC2)nnc1-c1cccs1 | -52.4
CCOC(=O)C1CCCCN1Cc1ccc(OC)c(OC)c1OC (stereo not drawn) | -14.4
O=C(/C=C/c1ccc(NC(=O)c2ccccc2-c2ccccc2C(=O)O)cc1)c1ccccc1 | 14.4
O=c1c2c(-c3ccccc3)csc2ncn1/N=C/c1c2ccccc2cc2ccccc12 | 0.841
